Test results: publication PMC5892938
The list shows a part of the results. At the low end of the ranking, values are background and their order means little.

target: GST-SBP-SLBP (stem-loop binding protein) (UniProt Q14493); test: targeted RNA Bind-n-Seq; settings: RBNS binding buffer: 25 mM Tris pH 7.5, 150 mM KCl, 3 mM MgCl2, 0.1% Tween, 0.5 mg/mL BSA, 1 mM DTT; 27 nM protein, 750 pM RNA pool; temperature not stated; high values mean tight binding;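 note: DESeq read counts versus GST-SBP nonspecific binding control pulldown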

Row | Sequence | binding signal (log2 fold change)
1 | GGUCACGUCUCAAUCAACUCAAUCCCCAGGGAAAGCCCUGGUUAAUUCAACAGCUCGCAGUCAAG | 0.0698
2 | GGUCACGUCUCAAUCAACUCUCUAGAGGGGGGGAAAACCCCUUUACCCUCGAAUUCAACAGCUCGCAGUCAAG | -0.135
3 | GGUCACGUCUCAAUCAACUCUUUCUCCAGGGAAAGCCCUGGCAAUGUCAACAGCUCGCAGUCAAG | 0.225
4 | GGUCACGUCUCAAUCAACUCUCAAGAGGGGGGGAAAACCCCUUUGCCCUCCAAUUCAACAGCUCGCAGUCAAG | -0.0399
5 | GGUCACGUCUCAAUCAACUCUAAAGAGGGGGGGAAAACCCCUUUGCCCUCAACCUCAACAGCUCGCAGUCAAG | 0.0452
6 | GGUCACGUCUCAAUCAACUCUUCUCCCAGGGAAACCCCUGGCAUACUCAACAGCUCGCAGUCAAG | -0.173
7 | GGUCACGUCUCAAUCAACUCACCCGAGGGGGGGAAAACCCCUUUACCCUCAUCAUCAACAGCUCGCAGUCAAG | -0.157
8 | GGUCACGUCUCAAUCAACUCACAAGAGGGGGGGAAAACCCCUUUGCCCUCAUUUUCAACAGCUCGCAGUCAAG | -0.281
9 | GGUCACGUCUCAAUCAACUCUUUCUCAGGAGUUUCCUCCUGCAUUUUCAACAGCUCGCAGUCAAG | 0.312
10 | GGUCACGUCUCAAUCAACUCUUUUUCCAGGGAAACCCCUGGUUAUGUCAACAGCUCGCAGUCAAG | 0.143
11 | GGUCACGUCUCAAUCAACUCAUUUCCAGGAGUUUACUCCUGCAUACUCAACAGCUCGCAGUCAAG | 0.087
12 | GGUCACGUCUCAAUCAACUCAACUUCAGGAGUUUACUCCUGUAUUUUCAACAGCUCGCAGUCAAG | -0.336
13 | GGUCACGUCUCAAUCAACUCUACUCCAGGAGUUUUCUCCUGUAUAUUCAACAGCUCGCAGUCAAG | 0.0154
14 | GGUCACGUCUCAAUCAACUCUACUCCAGGAGUUUUCUCCUGCAUUUUCAACAGCUCGCAGUCAAG | -0.0918
15 | GGUCACGUCUCAAUCAACUCAUUUUCAGGAGUUUCCUCCUGCUUACUCAACAGCUCGCAGUCAAG | 0.0883
16 | GGUCACGUCUCAAUCAACUCAACUUCCAGGGAAAACCCUGGUUUACUCAACAGCUCGCAGUCAAG | 0.0378
17 | GGUCACGUCUCAAUCAACUCAUCCUCCAGGGAAAGCCCUGGCAUACUCAACAGCUCGCAGUCAAG | -0.0738
18 | GGUCACGUCUCAAUCAACUCCUACGAGGGGGGGAAAACCCCUUUACCCUCACACUCAACAGCUCGCAGUCAAG | -0.0391
19 | GGUCACGUCUCAAUCAACUCUUUCUCCAGGGAAAGCCCUGGCUAUCUCAACAGCUCGCAGUCAAG | -0.103
20 | GGUCACGUCUCAAUCAACUCAAUUCCCAGGGAAAGCCCUGGUUAAUUCAACAGCUCGCAGUCAAG | -0.00202
21 | GGUCACGUCUCAAUCAACUCUAUUCCAGGAGUUUUCUCCUGCAAAUUCAACAGCUCGCAGUCAAG | 0.117
22 | GGUCACGUCUCAAUCAACUCACAAGAGGGGGGGAAAACCCCUUUACCCUCCACCUCAACAGCUCGCAGUCAAG | 0.24
23 | GGUCACGUCUCAAUCAACUCAUUCGAGGGGGGGAAAACCCCUUUACCCUCUUCAUCAACAGCUCGCAGUCAAG | 0.175
24 | GGUCACGUCUCAAUCAACUCAUUUUCAGGAGUUUACUCCUGUUAACUCAACAGCUCGCAGUCAAG | -0.0284
25 | GGUCACGUCUCAAUCAACUCAAUUCCAGGAGUUUACUCCUGUUUACUCAACAGCUCGCAGUCAAG | 0.0155

Row | Sequence | binding signal (log2 fold change)
26 | GGUCACGUCUCAAUCAACUCCAUAGAGGGGGGGAAAACCCCUUUACCCUCACCUUCAACAGCUCGCAGUCAAG | -0.0281
27 | GGUCACGUCUCAAUCAACUCCUCCGAGGGGGGGAAAACCCCUUUACCCUCAUCAUCAACAGCUCGCAGUCAAG | -0.198
28 | GGUCACGUCUCAAUCAACUCAUCCCCCAGGGAAAUCCCUGGUAAUUUCAACAGCUCGCAGUCAAG | 0.241
29 | GGUCACGUCUCAAUCAACUCUUUUUCCAGGGAAAUCCCUGGUUAUUUCAACAGCUCGCAGUCAAG | 0.112
30 | GGUCACGUCUCAAUCAACUCUUCGCCCAGGGAAAGCCCUGGUAUUCUCAACAGCUCGCAGUCAAG | -0.163
31 | GGUCACGUCUCAAUCAACUCACUAGAGGGGGGGAAAACCCCUUUACCCUCGAAAUCAACAGCUCGCAGUCAAG | 0.0521
32 | GGUCACGUCUCAAUCAACUCAUUUUCCAGGGAAACCCCUGGUAUUUUCAACAGCUCGCAGUCAAG | -0.088
33 | GGUCACGUCUCAAUCAACUCAACUCCCAGGGAAAACCCUGGUUUAUUCAACAGCUCGCAGUCAAG | -0.00236
34 | GGUCACGUCUCAAUCAACUCAUUUUCAGGAGUUUUCUCCUGUUAUCUCAACAGCUCGCAGUCAAG | 0.171
35 | GGUCACGUCUCAAUCAACUCUCACGAGGGGGGGAAAACCCCUUUACCCUCAUCUUCAACAGCUCGCAGUCAAG | -0.0599
36 | GGUCACGUCUCAAUCAACUCCUAAGAGGGGGGGAAAACCCCUUUACCCUCCACUUCAACAGCUCGCAGUCAAG | -0.07
37 | GGUCACGUCUCAAUCAACUCUUCUUCCAGGGAAAACCCUGGCUUUCUCAACAGCUCGCAGUCAAG | -0.0269
38 | GGUCACGUCUCAAUCAACUCUUCCUCCAGGGAAACCCCUGGCAUAUUCAACAGCUCGCAGUCAAG | -0.187
39 | GGUCACGUCUCAAUCAACUCUUCUCCAGGAGUUUUCUCCUGUUUUGUCAACAGCUCGCAGUCAAG | 0.00732
40 | GGUCACGUCUCAAUCAACUCCCUCGAGGGGGGGAAAACCCCUUUACCCUCUUCUUCAACAGCUCGCAGUCAAG | -0.52
41 | GGUCACGUCUCAAUCAACUCAUUCCCCAGGGAAAGCCCUGGUUUUCUCAACAGCUCGCAGUCAAG | -0.17
42 | GGUCACGUCUCAAUCAACUCAUUCUCAGGAGUUUACUCCUGCAUACUCAACAGCUCGCAGUCAAG | 0.0226
43 | GGUCACGUCUCAAUCAACUCUUCCUCCAGGGAAAGCCCUGGCAAAUUCAACAGCUCGCAGUCAAG | -0.518
44 | GGUCACGUCUCAAUCAACUCUCAAGAGGGGGGGAAAACCCCUUUGCCCUCACCAUCAACAGCUCGCAGUCAAG | -0.277
45 | GGUCACGUCUCAAUCAACUCAUGUCCAGGAGUUUACUCCUGCUUAUUCAACAGCUCGCAGUCAAG | -0.138
46 | GGUCACGUCUCAAUCAACUCAUCUUCAGGAGUUUCCUCCUGUUUAGUCAACAGCUCGCAGUCAAG | 0.0284
47 | GGUCACGUCUCAAUCAACUCCUAAGAGGGGGGGAAAACCCCUUUGCCCUCAAUGUCAACAGCUCGCAGUCAAG | 0.232
48 | GGUCACGUCUCAAUCAACUCUUCCUCCAGGGAAAGCCCUGGUAUACUCAACAGCUCGCAGUCAAG | 0.0345
49 | GGUCACGUCUCAAUCAACUCACAUGAGGGGGGGAAAACCCCUUUACCCUCCUAUUCAACAGCUCGCAGUCAAG | -0.583
50 | GGUCACGUCUCAAUCAACUCGCAAGAGGGGGGGAAAACCCCUUUACCCUCAAAAUCAACAGCUCGCAGUCAAG | 0.0808

Row | Sequence | binding signal (log2 fold change)
51 | GGUCACGUCUCAAUCAACUCUAUUCCAGGAGUUUGCUCCUGCAUUUUCAACAGCUCGCAGUCAAG | -0.0251
52 | GGUCACGUCUCAAUCAACUCCCUCGAGGGGGGGAAAACCCCUUUACCCUCUAUCUCAACAGCUCGCAGUCAAG | -0.555
53 | GGUCACGUCUCAAUCAACUCAGUCCCAGGAGUUUACUCCUGCAAUUUCAACAGCUCGCAGUCAAG | -0.107
54 | GGUCACGUCUCAAUCAACUCCCAAGAGGGGGGGAAAACCCCUUUACCCUCCAUAUCAACAGCUCGCAGUCAAG | -0.243
55 | GGUCACGUCUCAAUCAACUCUUUUUCCAGGGAAAUCCCUGGCGUAUUCAACAGCUCGCAGUCAAG | -0.0428
56 | GGUCACGUCUCAAUCAACUCUAUAGAGGGGGGGAAAACCCCUUUACCCUCAUUCUCAACAGCUCGCAGUCAAG | -0.512
57 | GGUCACGUCUCAAUCAACUCCUCCGAGGGGGGGAAAACCCCUUUACCCUCACCAUCAACAGCUCGCAGUCAAG | 0.125
58 | GGUCACGUCUCAAUCAACUCAUCCUCAGGAGUUUCCUCCUGCUUUUUCAACAGCUCGCAGUCAAG | 0.0537
59 | GGUCACGUCUCAAUCAACUCCCCAGAGGGGGGGAAAACCCCUUUACCCUCCAUAUCAACAGCUCGCAGUCAAG | 0.573
60 | GGUCACGUCUCAAUCAACUCAUUUCCAGGAGUUUUCUCCUGUUUAGUCAACAGCUCGCAGUCAAG | 0.0322
61 | GGUCACGUCUCAAUCAACUCUAUCCCAGGAGUUUCCUCCUGUAAUUUCAACAGCUCGCAGUCAAG | -0.0381
62 | GGUCACGUCUCAAUCAACUCAAUAGAGGGGGGGAAAACCCCUUUGCCCUCAACCUCAACAGCUCGCAGUCAAG | 0.157
63 | GGUCACGUCUCAAUCAACUCUUACGAGGGGGGGAAAACCCCUUUACCCUCUAUCUCAACAGCUCGCAGUCAAG | -0.131
64 | GGUCACGUCUCAAUCAACUCUUCUCCAGGAGUUUUCUCCUGUUUAUUCAACAGCUCGCAGUCAAG | -0.104
65 | GGUCACGUCUCAAUCAACUCUUCGCCCAGGGAAAUCCCUGGUAAUCUCAACAGCUCGCAGUCAAG | -0.0773
66 | GGUCACGUCUCAAUCAACUCUAUCGCAGGAGUUUCCUCCUGGUUAUUCAACAGCUCGCAGUCAAG | 0.0533
67 | GGUCACGUCUCAAUCAACUCAACUCCCAGGGAAACCCCUGGUAAUCUCAACAGCUCGCAGUCAAG | 0.126
68 | GGUCACGUCUCAAUCAACUCAAUUUCAGGAGUUUUCUCCUGCUAUGUCAACAGCUCGCAGUCAAG | 0.0516
69 | GGUCACGUCUCAAUCAACUCUUCGUCCAGGGAAACCCCUGGUUAUUUCAACAGCUCGCAGUCAAG | -0.305
70 | GGUCACGUCUCAAUCAACUCUUCUCCCAGGGAAAACCCUGGCUUUCUCAACAGCUCGCAGUCAAG | 0.27
71 | GGUCACGUCUCAAUCAACUCAUCUCCAGGAGUUUUCUCCUGUUUUCUCAACAGCUCGCAGUCAAG | 0.0102
72 | GGUCACGUCUCAAUCAACUCCUUAGAGGGGGGGAAAACCCCUUUACCCUCAAACUCAACAGCUCGCAGUCAAG | -0.0253
73 | GGUCACGUCUCAAUCAACUCUUCCCCAGGAGUUUCCUCCUGCAAAUUCAACAGCUCGCAGUCAAG | 0.185
